# Results as given in PubChem BioAssay AID485313 (National Center for Advancing Translational Sciences (NCATS), 2010).
# Among all 320,000 compounds or so, about 7,600 (2.4%) were called active. Inconclusive results, whose numbers are uncertain, are shown with a selection of clear calls. Calls come from the whole dose curve; as a rule, active = well fitted activation curve with a large enough effect; inconclusive = small, poorly fitted or top-dose-only effect; inactive = no such curve, though single readings can be large or run the other way. No potency is given beside an inconclusive call; the fits are too rough.
# Assay: qHTS Assay for NPC1 Promoter Activators; note: nearly all actives have a fitted effect of over 60% in size; for activation: % of control where 0% means no effect
# Details: Huh7 NPC1 promoter luciferase reporter, 24 h; series mostly up to 9.22 µM; activation: at the top concentration
# Outline: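 Luminescence from an NPC1 promoter-driven luciferase reporter in stably transfected Huh7 cells was measured after 24 h compound treatment at 37 °C, followed by 10 min ambient incubation with luciferase detection reagent.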
# Potency is the fitted concentration of half-maximal effect; tags give direction and shape of the fitted curve.
SMILES,Potency,activation
O=C1CCCN1CCCNc1ncnc2c1cnn2-c1ccc(Cl)cc1,"inconclusive [activator, partial curve]",
O=C(/C=C/c1ccccc1)Nc1cccc(C(=O)O)c1,"inconclusive [activator, partial curve, poor fit]",
Cc1ccc(-c2cc(C(=O)N/N=C/c3ccc([N+](=O)[O-])o3)c3ccccc3n2)o1,"inconclusive [activator, partial curve]",
Cc1cccc(NC(=O)C(=O)NCCCc2ccccc2)c1,"inconclusive [activator, single point]",
CC1CCc2nc(NC(=O)c3ccco3)sc2C1 (configuration not stated),active: 0.447 µM,
Cc1cccnc1NC(=S)NC(=O)c1cccs1,"inconclusive [activator, single point]",
COc1ccc(OC)c(C2=CC(=O)C[C@H](c3ccc4c(c3)OCO4)C2)c1,,inactive: -17.2%
O=[N+]([O-])/C=C/c1ccc2c(ccn2Cc2ccccc2)c1,"inconclusive [activator, single point]",
COc1ccc(NC(=O)Cn2c(=O)oc3cc(S(=O)(=O)N4CCCC4)ccc32)c(OC)c1,,inactive: -3.5%
Cn1cccc1/C=N/NC(=O)c1sc2ccccc2c1Cl,"inconclusive [activator, partial curve]",
COc1ccc(C(=O)N/N=C(\C)c2cccc(NC(=O)c3ccc(F)cc3)c2)c(OC)c1,,inactive: 29.7%
O=S(=O)(c1ccc(OCc2nc3ccccc3s2)c(Cl)c1)N1CCOCC1,"inconclusive [activator, partial curve]",
O=C(N/N=C/c1sc(=O)n(-c2ccccc2)c1Cl)c1ccccc1,active: 1.58 µM,
Cc1cccc2sc(NC(=O)C3c4ccccc4Oc4ccccc43)nc12,,inactive: 2.54%
Cc1ccc(/C=C2\Sc3ccccc3C2=O)s1,"inconclusive [activator, single point]",
COc1cc(SC)ccc1C(=O)Nc1ccc2c(c1)OCO2,active: 0.891 µM,
CCOC(=O)c1c(C)[nH]c(C(=O)OCc2ccc([N+](=O)[O-])cc2)c1C,,inactive: -0.302%
CCOc1ccc(NS(=O)(=O)c2ccc3[nH]cc(C(=O)NCC4CCCO4)c(=O)c3c2)cc1 (configuration not stated),"inconclusive [activator, partial curve]",
Cc1cs/c(=N/C(=S)Nc2ccccc2)n1C,active: 1.12 µM,
Cc1ccc(/C=C/c2nc3ccccc3[nH]2)o1,active: 0.708 µM,
COc1ccc(-n2c(C)c(C(C)=O)c(C(C)=O)c2C)cc1,"inconclusive [activator, single point]",
COC(=O)Cn1c(=NC(=O)c2ccc(Cl)s2)sc2cc(C)ccc21,"inconclusive [activator, single point]",
CCOc1cc(/C=N/NC(=O)CCn2nnc3ccccc32)ccc1O,,inactive: -0.472%
CN1/C(=C\C(=O)c2cccnc2)C(C)(C)c2ccccc21,,inactive: 2.69%
COc1ccc(N=Cc2c(O)c3ccccc3n2C(C)=O)cc1,"inconclusive [activator, single point]",
O=C(NC(N1CCOCC1)C(Cl)(Cl)Cl)c1ccco1 (configuration not stated),"inconclusive [activator, partial curve]",

SMILES,Potency,activation
COc1ccc(/C=N/Nc2ncnc3sc4c(c23)CCCC4)cc1OC,,inactive: 11.3%
Cc1ccc(-c2cc(=O)c3cc(Cl)ccc3[nH]2)cc1,"inconclusive [activator, single point]",
O=C(COC(=O)CNC(=O)c1sc2ccccc2c1Cl)NC1CCS(=O)(=O)C1 (configuration not stated),,inactive: -0.845%
COc1ccc(Cl)cc1C(=O)Nc1ccc2c(c1)OCO2,"inconclusive [activator, partial curve]",
CC(=O)COc1ccc2c(C)c(-c3ccccc3)c(=O)oc2c1,"inconclusive [activator, partial curve]",
COc1ccc2[nH]c3c(=O)n(Cc4ccc(C(=O)N5CCC(C(N)=O)CC5)cc4)c(=S)[nH]c3c2c1,,inactive: 1.28%
CCCCc1ccc(NC(=S)N2CCCC2)cc1,"inconclusive [activator, single point]",
Cc1onc(-c2c(Cl)cccc2Cl)c1CO/N=C(\C#N)c1c(Cl)cccc1Cl,"inconclusive [activator, single point]",
COc1ccc(-c2nnc(SCC(=O)c3cccs3)o2)cc1,active: 3.55 µM,
c1ccc(-c2ncc3c(ccc4ccccc43)n2)cc1,active: 3.98 µM,
Fc1ccc(-c2noc(-c3ccc4c(c3)CCO4)n2)cc1,"inconclusive [activator, full curve]",
CC1=NN(c2ccccc2)C(=O)C1C(=O)C(=O)Nc1ccc(F)cc1 (configuration not stated),"inconclusive [activator, partial curve]",
O=C(N/N=C/c1cccc(C(F)(F)F)c1)c1ccccc1O,,inactive: 18.2%
COc1ccc(/C=C/C2=CC(C)(C)NC(=S)N2)cc1OC,,inactive: 7.7%
CN(C)/C=C/C(=O)c1ccc(Oc2ccccc2)cc1,"inconclusive [activator, partial curve]",
Cc1ccc(NC(=O)Nc2cc(S(C)(=O)=O)ccc2Cl)cc1,"inconclusive [activator, single point]",
CC(=O)OCC(=O)N1N=C(c2ccc3ccccc3c2)CC1c1ccccc1 (configuration not stated),"inconclusive [activator, partial curve]",
Cc1cccnc1NC(=O)c1cc2ccccc2oc1=O,active: 1.78 µM,
C=CCNC(=O)Cn1nnc(-c2ccc(-c3ccc(OC)cc3)cc2)n1,"inconclusive [activator, full curve]",
O=C(Nc1cc2c(cc1Cl)OCCO2)c1ccco1,"inconclusive [activator, partial curve]",
COc1cc(/C=C/c2ccc3cccc(O)c3n2)ccc1O,"inconclusive [activator, single point]",
O=C(COC(=O)C1CCN(c2ccc(C(F)(F)F)cn2)CC1)c1ccccc1,,inactive: 0.051%
CSc1nc(-c2ccc(N(C)C)cc2)c(C#N)c(=O)n1C,"inconclusive [activator, single point]",
O=C(Nc1ccc(-c2nc3cccnc3s2)cc1)c1ccc(Br)o1,active: 2.82 µM,
CCCc1ccc(-c2cc(C(=O)N3CCN(c4ccccn4)CC3)c3ccccc3n2)cc1,"inconclusive [activator, full curve]",
O=C(CSc1nnc(-c2ccccc2O)o1)N1CCOCC1,"inconclusive [activator, single point]",

SMILES,Potency,activation
NC(=O)c1ccccc1NC(=O)COc1ccc2c(c1)OCO2,active: 2.51 µM,
COc1ccc(NC(=O)c2cccs2)c([N+](=O)[O-])c1,"inconclusive [activator, single point]",
Cc1cc(N=Nc2ccc(C)c(N=Nc3cc(C)c(N)cc3N)c2)c(N)cc1N,active: 2.82 µM,
COc1ccc(CC(=O)Nc2ccc(-c3cn4ccccc4n3)cc2)cc1,"inconclusive [activator, partial curve]",
CC1CCc2sc(C(=O)NCc3ccc(F)cc3)cc2C1 (configuration not stated),,inactive: -0.123%
O=C1CN(C(=O)OCc2ccccc2)c2ccccc2N1,"inconclusive [activator, single point]",
C/C(=N\NC(=O)c1ccc(Cl)cc1)c1cccnc1,"inconclusive [activator, partial curve]",
COc1ccc(C(=O)OCc2cc(=O)n3c(C)csc3n2)cc1F,active: 3.98 µM,
CCCCn1c(N)c(N(CC(C)C)C(=O)CSC(C)C(=O)Nc2cc(C)on2)c(=O)[nH]c1=O (configuration not stated),,inactive: -1.5%
CC(=O)Oc1ccc(N(C(C)=O)S(=O)(=O)c2cccs2)c2ccccc12,,inactive: -4.02%
Cc1ccsc1/C=N/Nc1ccc(C(=O)O)cc1,"inconclusive [activator, full curve, poor fit]",
CC(C)c1ccc(Nc2ncccc2C(=O)O)cc1,active: 0.631 µM,
O=C(Oc1ccc(-c2cnc3ccccc3n2)cc1)c1ccc(Br)o1,"inconclusive [activator, single point]",
CCc1ccc(/C(C)=N/Nc2cc(Cl)nc(C)n2)cc1,,inactive: 1.54%
Cc1ccc(-c2noc(-c3ccno3)n2)cc1,"inconclusive [activator, partial curve]",
CCOc1ccc(-c2cc(CCCC(=O)NCc3cccnc3)no2)cc1,"inconclusive [activator, partial curve]",
NNC(=O)c1nn(-c2ccc(Cl)cc2)cc1O,"inconclusive [activator, single point]",
NC(=O)c1c(NC(=O)c2ccccc2F)sc2c1CCCC2,active: 1.58 µM,
O=C1C(C=NCc2cccnc2)=C(O)c2ccccc21,,inactive: 14%
COc1cc(/C=C(\C#N)C(=O)Nc2ccccc2)ccc1OCCN1CCOCC1,"inconclusive [activator, single point]",
COc1ccc(/C=C\C(=O)c2c(O)ccc3c(C)cc(=O)oc23)cc1OC,,inactive: -9.82%
CCOc1ccc(C2=Nc3ccc(Br)cc3C(c3ccc(N4CCOCC4)cc3)=NN2)cc1,"inconclusive [activator, partial curve]",
CCOC(=O)c1cnc(Nc2nc3ccccc3o2)nc1C,"inconclusive [activator, partial curve]",
Cc1cc(NC(=O)CCC2CCCCC2)no1,,inactive: 18.8%
Fc1cccc(Cl)c1Cn1nnc(-c2ccc3c(c2)OCO3)n1,"inconclusive [activator, single point]",
